Results published in publication PMC4336329 (PLoS ONE, 2015).
Among all 310,000 compounds or so, about 2,200 (0.71%) showed an effect of 50% or more. The effect is printed as a negative number. The list shows a part of the results. Where a SMILES comes first, the peptide text is derived from it. The star is where a group is joined. Boc = CC(C)(C)OC(=O)*

target: human ether-à-go-go-related gene (hERG) potassium channel (human, UniProt Q12809); assay: primary screen, population patch clamp on CHO cells stably expressing hERG
Sequence (Q12809 whole entry, looked up): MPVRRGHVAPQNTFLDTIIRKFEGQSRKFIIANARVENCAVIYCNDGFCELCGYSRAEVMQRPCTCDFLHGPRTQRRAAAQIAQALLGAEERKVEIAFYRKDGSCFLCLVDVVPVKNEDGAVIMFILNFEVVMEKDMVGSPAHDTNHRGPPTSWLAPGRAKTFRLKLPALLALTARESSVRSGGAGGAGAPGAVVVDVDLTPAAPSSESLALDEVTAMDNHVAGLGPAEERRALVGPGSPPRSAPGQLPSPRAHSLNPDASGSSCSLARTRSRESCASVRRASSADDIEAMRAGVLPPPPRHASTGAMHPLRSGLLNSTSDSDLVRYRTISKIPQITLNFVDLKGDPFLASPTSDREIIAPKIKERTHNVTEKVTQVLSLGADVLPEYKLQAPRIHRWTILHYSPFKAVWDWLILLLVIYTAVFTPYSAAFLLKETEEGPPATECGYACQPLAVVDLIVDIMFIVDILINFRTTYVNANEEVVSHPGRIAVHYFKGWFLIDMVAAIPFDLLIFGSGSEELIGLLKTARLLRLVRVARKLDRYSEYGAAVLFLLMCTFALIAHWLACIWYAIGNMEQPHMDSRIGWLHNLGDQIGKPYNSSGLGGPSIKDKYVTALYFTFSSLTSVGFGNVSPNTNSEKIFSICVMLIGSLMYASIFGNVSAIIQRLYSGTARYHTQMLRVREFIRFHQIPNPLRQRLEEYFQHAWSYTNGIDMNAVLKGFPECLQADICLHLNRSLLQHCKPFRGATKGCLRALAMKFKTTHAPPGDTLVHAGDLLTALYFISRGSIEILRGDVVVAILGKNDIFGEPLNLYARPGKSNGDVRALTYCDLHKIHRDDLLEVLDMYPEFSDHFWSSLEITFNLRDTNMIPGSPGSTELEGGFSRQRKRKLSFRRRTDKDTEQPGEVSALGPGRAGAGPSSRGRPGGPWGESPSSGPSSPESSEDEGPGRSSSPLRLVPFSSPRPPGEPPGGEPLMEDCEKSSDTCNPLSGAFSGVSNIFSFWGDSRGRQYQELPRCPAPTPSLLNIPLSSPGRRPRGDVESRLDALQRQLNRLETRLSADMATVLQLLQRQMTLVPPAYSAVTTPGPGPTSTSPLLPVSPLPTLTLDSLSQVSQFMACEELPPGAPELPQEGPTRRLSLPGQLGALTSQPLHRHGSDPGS

| SMILES | hERG current change (%, negative = inhibition) at 1uM [%] |
| --- | --- |
| Cc1ccc(-c2cc(C(=O)N3CC(C)OC(C)C3)c3ccccc3n2)o1 (stereo not drawn) | -3.72 |
| COc1cc(OC)cc(C(=O)Nc2ccccc2N2CCOCC2)c1 | -7.1 |
| CCC1CCCCN1CCCNC(=O)CS(=O)(=O)Cc1nc(-c2cccc(OC)c2)oc1C (stereo not drawn) | 1.71 |
| O=C(Nc1ccc(Oc2cccc(C(F)(F)F)c2)nc1)c1cccs1 | 12.6 |
| C=CCNc1nc(Nc2ccc(-c3nc4ccccc4o3)cc2)nc(N2CCOCC2)n1 | 2.46 |
| Cc1noc(C)c1CSc1nc2ccccc2c(=O)n1-c1ccc(F)cc1F | -5.75 |
| CCN(CC(=O)Nc1ccc(NC(C)=O)cc1)C(=O)c1cccc(S(=O)(=O)N2CCCC2)c1 | 9.12 |
| COc1ccccc1NC(=O)c1cc(S(=O)(=O)N2CCc3ccccc32)ccc1F | 7.55 |
| CCOC(=O)/C(N=Nc1ccc(F)cc1)=C(/O)c1ccc([N+](=O)[O-])cc1 | 13.8 |
| CCCCc1ccc(N=N/C(C(=O)Nc2cc(OC)c(NC(C)=O)cc2OC)=C(/C)O)cc1 | 16.4 |
| CC1=C(C(=O)N(C)C)C(c2ccc(N3CCOCC3)cc2)NC(=O)N1 (stereo not drawn) | 14.9 |
| NC(=O)CC(NC(=O)Cc1cccc2ccccc12)c1ccc(NCc2ccccc2)c([N+](=O)[O-])c1 (stereo not drawn) | -0.125 |
| CC(C)c1nc2n[nH]c(N)c2c2c1CSC(C)(C)C2 | 3.45 |
| COCCN(C(=O)COC(=O)Cc1ccc(Cl)cc1Cl)c1c(N)n(Cc2ccccc2)c(=O)[nH]c1=O | 11.2 |
| CC(C1CCN(Cc2nc(C3CC3)no2)CC1)N1CCOCC1 (stereo not drawn) | 8.89 |
| CCc1ccc([C@@H]2C[C@H]3CN(Cc4ccccc4OC)C(=O)[C@]34CCCN24)cc1 | -28.8 |
| CCN1C(=O)/C(=C\C(=O)c2cccs2)c2cc(Br)ccc21 | 11.7 |
| Cc1cccc(OP(N)(N)=O)c1C | 18 |
| Cc1nccc(-c2ccc3c(c2)OCO3)n1 | -2.29 |
| Cc1ccc(/C=C/c2onc(C)c2S(=O)(=O)N2CCC(C(=O)N3CCN(C)CC3)CC2)cc1 | 14.1 |
| CCCC(=O)N1CCN(c2nc3ccc(Br)cc3s2)CC1 | -25.2 |
| Oc1c(N=Nc2ccccn2)ccc2ccccc12 | 15.9 |

| SMILES | hERG current change (%, negative = inhibition) at 1uM [%] |
| --- | --- |
| COc1ccc(N2CCN(C(=O)CSc3ccc([N+](=O)[O-])cc3)CC2)cc1 | -85.1 |
| COc1ccc(S(=O)(=O)NCc2cccnc2)cc1NC(=O)c1ccc(C)cc1 | -0.856 |
| Nc1nc(SCC(=O)Nc2ccc(Cl)c([N+](=O)[O-])c2)n[nH]1 | 6.98 |
| CCc1nc(C)cn1S(=O)(=O)c1cc(C)c(OC)cc1C | 4.46 |
| CC(NCC#Cc1ccccc1)C(O)c1ccccc1.Cl (stereo not drawn) | 11.3 |
| CCCn1c(=O)c(/C(N)=N/O)nn(-c2cccc(C(F)(F)F)c2)c1=O | 6.69 |
| CC(C)COc1ccc(-c2nnc(-c3ccco3)o2)cc1 | 6.55 |
| CC(C)OC1CCCC(O)C1CC(=O)O (stereo not drawn) | 11 |
| O=C(NNc1cccc(Cl)n1)C1CC1 | 5.83 |
| Nc1c(-c2ccccc2)cnn1-c1cccc(Cl)c1 | 8.5 |
| COc1ccc(C)cc1S(=O)(=O)N(CC(=O)N1CCCC1)c1ccccc1 | 4.54 |
| S=C(Nc1ccc2c(c1)OCO2)N1CCCC1 | 9.91 |
| CCOC(=O)c1[nH]c(C)c(C(=O)OCC(=O)Nc2sc3c(c2C#N)CCCCC3)c1C | 5.06 |
| COCCNC(=O)c1ccccc1NC(=O)Cc1ccccc1[N+](=O)[O-] | 12.1 |
| O=C(CSc1nc(-c2cccs2)cc(C(F)(F)F)n1)Nc1cc(OCC(F)(F)C(F)F)cc([N+](=O)[O-])c1 | 17.8 |
| CCNC(=S)SCCOc1ccc(C)cc1 | 11.6 |
| Cc1cccc(/C(N)=N/OC(=O)N2CCOCC2)c1 | -1.56 |
| CN(C1=C(N2CCOCC2)C(=O)c2ccccc2C1=O)c1ccccc1 | 4.9 |
| Cc1ccc(-c2sc(C)nc2CC(=O)O)cc1 | 7.75 |
| Cc1cnc(N)c2c(=O)oc3ccccc3c12 | 16.8 |
| CSc1nc2ccccc2n1CC(=O)Nc1cc(C(F)(F)F)ccc1N1CCOCC1 | 9.52 |
| COc1ccccc1-n1cnc2cc(C(=O)N3CCOCC3)ccc21 | 8.75 |

| SMILES | hERG current change (%, negative = inhibition) at 1uM [%] |
| --- | --- |
| Nc1ccc(-c2n[nH]c(=O)c3ccccc23)cc1N | 2.14 |
| COc1cccc(/C=C2\SC(=S)NC2=O)c1OS(=O)(=O)c1ccc(NC(C)=O)cc1 | 14.5 |
| COc1ccc(C(=O)Nc2ccc3c(c2)nc(CN2CCCC2)n3C)cc1 | -1.45 |
| CCN(CC)S(=O)(=O)c1cccc(C(=O)OCc2cc(=O)n3nc(C)sc3n2)c1 | -2.8 |
| COc1ccc(NC(=O)COC(=O)c2ccc(OCc3ccccc3Cl)c(OC)c2)c(OC)c1 | 7.47 |
| Cn1c(N)c(S(=O)(=O)N2CCN(c3ccccc3)CC2)c(=O)n(C)c1=O | -13.6 |
| Cc1cc(C)nc(N(C#N)CN2C(=O)c3ccccc3C2=O)n1 | -4.19 |
| COC(=O)C(CC(C)C)NC(=O)C(Cc1ccccc1)NC(=O)C1CCCN1C(=O)OC(C)(C)C (stereo not drawn) (Boc-Pro-Phe-Leu-OMe; configuration not given here) | 34.9 |
| c1ccc(-c2csc(N3CCN(c4ccccn4)CC3)n2)cc1 | 5.73 |
| Cc1nnc(NC(=O)C2CC(=O)N(C(C)c3ccccc3)C2)s1 (stereo not drawn) | 9.34 |
| COC(=O)c1ccc(NC(=O)C2CCCN2S(=O)(=O)c2ccc(C)cc2)cc1 (stereo not drawn) | 6.25 |
| CCCN1CCN(C(=O)CCc2nnc3ccc(N4CCN(c5cccc(OC)c5)CC4)nn23)CC1 | -4.64 |
| COc1ccc2c(c1)C=C(CN1CCC(CO)(CCc3ccccc3)CC1)CO2 | -27.2 |
| OC(COCc1ccccc1)CN1CCN(c2ccccc2)CC1 (stereo not drawn) | -6.24 |
| Cc1cc(C)c(C#N)c(SCc2ccccc2[N+](=O)[O-])n1 | 17.8 |
| CCCCC(CC)CNC(=O)C(Cc1ccccc1)NS(=O)(=O)c1ccc2c(c1)CCC(=O)N2 (stereo not drawn) | 9.1 |
| CCCNS(=O)(=O)c1cc(CN2C(=O)c3cccnc3C2=O)ccc1OC | 15.9 |
| O=C(Nc1nc(-c2ccc(S(=O)(=O)N3CCCC3)cc2)cs1)C1COc2ccccc2O1 (stereo not drawn) | 12.3 |
| Br.CCC(=O)Nc1nc(C)c(-c2csc(Nc3cccc(O)c3)n2)s1 | -4.59 |
| O=C(CSC(=S)N1CCCCC1)c1ccccc1 | 15.4 |
| COc1cc(NC(=O)c2cc(-c3ccc(C)cc3)on2)cc(OC)c1OC | 17.1 |
| C/C(=N/NC(=O)CCC(=O)Nc1cccc(Cl)c1)c1ccc(C)cc1 | 13 |

| SMILES | hERG current change (%, negative = inhibition) at 1uM [%] |
| --- | --- |
| O=C(CSc1cccc[n+]1[O-])Nc1ccccc1Oc1ccccc1 | 14.9 |
| CC1(C)COC(Nc2cccc(Cl)c2)=N1 | 13.4 |
| O=C(CSc1ccc(/C=N/NC(=O)c2cccc(F)c2)o1)Nc1ccccc1 | 12.8 |
| CCOCCCNC(=O)c1ccc2nc(-c3ccc(OC)c(OC)c3)c(-c3ccc(OC)c(OC)c3)nc2c1 | 15.6 |
| O=C(Nc1cccnc1)c1ccc(Br)s1 | 7.81 |
| CSc1ccccc1OCc1cc(C(=O)N2CCc3sccc3C2)no1 | 14.4 |
| Cc1cc(C)cc(N2C(=O)CC(c3ccccc3)CC2=O)c1 | 10.3 |
| CNc1cc([N+](=O)[O-])ccc1OCc1ccccc1 | 7.45 |
| Cn1c(CC(=O)NNC(=O)c2ccc(F)cc2F)nc2ccccc21 | 9.01 |
| CCCOc1ccc(C(=O)NC(=S)Nc2nc(C)c(C(=O)N(C)C)s2)cc1 | 2.2 |
| COc1ccccc1C(=O)Nc1ccnn1C1CCN(Cc2csc(C(C)=O)c2)CC1 | -50.9 |
| Cc1ccc(NC(=S)NC2CC3CCC(C2)N3Cc2ccco2)cc1C (stereo not drawn) | -7.37 |
| C/C(=C\C(=O)Nc1nccs1)c1ccccc1 | 6.44 |
| COc1cccc(OCC(=O)O/N=C(\N)c2ccncc2)c1 | 11.6 |
| CC(SCc1ccccc1)C(=O)Nc1ccc2c(c1)OCO2 (stereo not drawn) | 3.57 |
| Cc1cc2cc(CN(CCCN3CCOCC3)C(=O)NC3CCCCC3)c(=O)[nH]c2cc1C | -6.62 |
| COC(=O)CCC(=O)N1CCCC(N2CCN(c3ccc(OC)cc3)CC2)C1 (stereo not drawn) | 10.5 |
| CCOCCCn1cnc2c(c1=O)c1nc3ccccc3nc1n2-c1ccccc1 | -12.9 |
| COc1ccc(C(=O)CC(=O)C(=O)Nc2cccc(F)c2)cc1 | 3.92 |
| N#C/C(=C\c1ccncc1)c1nc2ccccc2c(=O)[nH]1 | 14.2 |
| Cc1ccccc1OCCCC(=O)Nc1ccc(Br)cc1 | 8.34 |
